Among the data in PubChem BioAssay AID2202238 (Ras Initiative Chemistry Research Team, Frederick National …, 2025) are percent labeling values, retold here.

The experiment concerns the target GTPase KRas (Homo sapiens) (UniProt P01116). Nature of the experiment: Covalent labelling of cysteine mutants by fragments, read by mass spectrometry (AID 2202238). On the set-up: protein at 5 µM with 500 µM competing thiol for 1.5 h. Conditions: KRAS G12D cysteine mutants, disulfide tethering, MALDI-TOF labeling, stronger effect = higher value, fragment at 500 µM.
Chain of UniProt P01116 (P01116 whole entry, looked up, the tested form may be a part): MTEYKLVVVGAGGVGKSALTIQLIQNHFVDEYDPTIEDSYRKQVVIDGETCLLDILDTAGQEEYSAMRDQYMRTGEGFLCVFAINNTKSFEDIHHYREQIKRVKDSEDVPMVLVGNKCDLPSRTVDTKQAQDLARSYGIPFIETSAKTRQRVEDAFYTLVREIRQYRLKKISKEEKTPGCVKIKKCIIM
[1] abbreviates: measured here: G60C mutant labeling.
Where [2] appears, read: measured here: G75C mutant labeling.
Setting [3] is: measured here: H94C mutant labeling.
[4] abbreviates: measured here: I36C mutant labeling.
[5] abbreviates: measured here: L120C mutant labeling.
Where [6] appears, read: measured here: M67C mutant labeling.
Setting [7] is: measured here: M72C mutant labeling.
Setting [8] is: measured here: N26C mutant labeling.
The mark [9] stands for this setting: measured here: N86C mutant labeling.
Where [10] appears, read: measured here: P121C mutant labeling.
Where [11] appears, read: measured here: S122C mutant labeling.
[12] abbreviates: measured here: S136C mutant labeling.

This is one part of the list. Shown are side measurements of this screen, not its main read-out; they come without a call.

For `CC(C)(C(=O)NCCS)c1cccc(C(F)(F)F)c1`, the percent labeling by setting is: under setting [1], 39.4%; under setting [2], 16.4%; under setting [3], 27.4%; under setting [4], 15.4%; under setting [5], 26.5%; under setting [6], 22.5%. Besides, the percent labeling came to 29.7% under setting [7]; 29.6% under setting [8]; 19.2% under setting [9]; 19.3% under setting [10]; 18.8% under setting [11]; 29.1% under setting [12].

With `O=C(CCS)Nc1nnc(Cc2ccc(C(F)(F)F)cc2)s1`, the percent labeling by setting is: under setting [2], 7.8%; under setting [3], 13.1%; under setting [4], 11.8%; under setting [5], 12.2%; under setting [6], 13.9%; under setting [7], 18.3%. The percent labeling runs as follows: under setting [9], 13.7%; under setting [10], 15.4%; under setting [11], 4.6%; under setting [12], 32.4%.

Take `O=C(CCS)NCc1cc(C2CCC2)n[nH]1`: the percent labeling was found to be 17.9% under setting [2]; 33.5% under setting [3]; 40.7% under setting [4]; 27.7% under setting [5]; 35% under setting [6]; 34.1% under setting [7]. Besides, the percent labeling runs as follows: under setting [9], 22.2%; under setting [10], 36.6%; under setting [11], 34.2%; under setting [12], 47%.

`N#Cc1cnn(-c2ccc(C(=O)NCCS)cc2)c1N`: the percent labeling worked out at 27% under setting [1]; 11.8% under setting [2]; 23.4% under setting [3]; 20.3% under setting [4]; 24% under setting [5]; 23.8% under setting [6]. Besides, the percent labeling by setting is: under setting [7], 36.6%; under setting [8], 35.8%; under setting [9], 23.9%; under setting [10], 20.9%; under setting [11], 18.8%; under setting [12], 27.4%.

`COc1cccc(OCCNC(=O)CCS)c1O`: the percent labeling by setting is: under setting [2], 12.2%; under setting [3], 29.6%; under setting [4], 35.7%; under setting [5], 38.4%; under setting [6], 32.9%; under setting [7], 22.7%. The percent labeling runs as follows: under setting [9], 14.3%; under setting [10], 33%; under setting [11], 35.8%; under setting [12], 46.6%.

With `CCC(Cc1cccc(Br)c1)C(=O)NCCS` (stereo unspecified), the percent labeling by setting is: under setting [1], 51.6%; under setting [2], 17.1%; under setting [3], 25.1%; under setting [4], 16.7%; under setting [5], 16%; under setting [6], 22.7%. Further, the percent labeling was 34.9% under setting [7]; 28.3% under setting [8]; 14.2% under setting [9]; 20.7% under setting [10]; 13.8% under setting [11]; 22.4% under setting [12].

On to `O=C(CCS)Nc1cccc(OC2CCCCC2)c1`, for which the percent labeling by setting is: under setting [2], 13.1%; under setting [3], 16.7%; under setting [4], 12.1%; under setting [5], 21.9%; under setting [6], 9.9%; under setting [7], 33.7%. In addition, the percent labeling reads like this: under setting [9], 9.6%; under setting [10], 16.9%; under setting [11], 12.5%; under setting [12], 29.4%.

For `CCOC(=O)c1cnc(CNC(=O)CCS)nc1C(F)F`, the percent labeling was determined as 7% under setting [2]; 18.8% under setting [3]; 21.4% under setting [4]; 29.7% under setting [5]; 28.8% under setting [6]; 19.2% under setting [7]. Besides, the percent labeling was 15.6% under setting [9], 24.8% under setting [10], 32.7% under setting [11] and 36% under setting [12].

In turn, `O=C(CCCNC(=O)c1ccc(Cl)cc1)NCCS` registered a percent labeling under setting [1] of 30.7%; a percent labeling under setting [2] of 15.2%; a percent labeling under setting [3] of 25.8%; a percent labeling under setting [4] of 19.2%; a percent labeling under setting [5] of 26.7%; a percent labeling under setting [6] of 24.1%. Further, the percent labeling stood at 20.1% under setting [7]; 47.2% under setting [8]; 21% under setting [9]; 24.5% under setting [10]; 19.6% under setting [11]; 24.7% under setting [12].

Take `CCOc1cc(C(=O)N(C)C)ccc1NC(=O)CCS`: the percent labeling amounted to 14% under setting [2]; 39.2% under setting [3]; 41.7% under setting [4]; 31.2% under setting [5]; 43.8% under setting [6]; 33.2% under setting [7]. Further, the percent labeling by setting is: under setting [9], 34.1%; under setting [10], 32.4%; under setting [11], 37%; under setting [12], 57.6%.

With `CC(C(=O)NCCS)c1ccc2c(c1)OCCO2` (stereo unspecified), the percent labeling was found to be 60.5% under setting [1]; 17.2% under setting [2]; 36% under setting [3]; 29.7% under setting [4]; 41% under setting [5]; 29.7% under setting [6]. The percent labeling by setting is: under setting [7], 35.1%; under setting [8], 37.1%; under setting [9], 25.7%; under setting [10], 27.7%; under setting [11], 28.3%; under setting [12], 50%.

Turning to `CCCOc1ccc(C(F)(F)F)cc1NC(=O)CCS`, the percent labeling came out at 15.2% under setting [2]; 69.7% under setting [3]; 18.1% under setting [4]; 11.8% under setting [5]; 17.6% under setting [6]; 31% under setting [7]. The percent labeling by setting is: under setting [9], 13.7%; under setting [10], 15.8%; under setting [11], 9.8%; under setting [12], 24.8%.

In the case of `CC(C)c1ccc2cc(C(=O)NCCS)[nH]c2c1`, the percent labeling is 32.7% under setting [1]; 9.9% under setting [2]; 7.5% under setting [3]; 5.5% under setting [4]; 13% under setting [5]; 4.6% under setting [6]. The percent labeling by setting is: under setting [7], 29.7%; under setting [8], 20.9%; under setting [9], 0%; under setting [10], 9.7%; under setting [11], 4.5%; under setting [12], 8%.

`NC(=O)c1cc(CNC(=O)CCS)n2c1COCC2` displayed a percent labeling under setting [2] of 4.9%; a percent labeling under setting [3] of 16.4%; a percent labeling under setting [4] of 22.7%; a percent labeling under setting [5] of 14.4%; a percent labeling under setting [6] of 20%; a percent labeling under setting [7] of 8.9%. Further, the percent labeling under setting [9] is 13.3%, the percent labeling under setting [10] is 15.9%, the percent labeling under setting [11] amounted to 18.1% and the percent labeling under setting [12] came to 22.7%.

In the case of `CC(C(=O)NCCS)n1nnc(-c2ccccc2)n1` (stereo unspecified), the percent labeling stood at 23.1% under setting [1]; 9.7% under setting [2]; 18.7% under setting [3]; 16.4% under setting [4]; 32.4% under setting [5]; 36.4% under setting [6]. Also, the percent labeling under setting [7] came to 32%; the percent labeling under setting [8] stood at 26.7%; the percent labeling under setting [9] came to 14.1%; the percent labeling under setting [10] worked out at 20.1%; the percent labeling under setting [11] was 18.4%; the percent labeling under setting [12] came out at 26.1%.

Consider `Cc1nn(C)c2[nH]c(=O)c(CCC(=O)NCCS)c(C)c12`, for which the percent labeling runs as follows: under setting [1], 46%; under setting [2], 16.7%; under setting [3], 27.2%; under setting [4], 43.8%; under setting [5], 28.2%; under setting [6], 37.6%. Besides, the percent labeling turned out to be 28.9% under setting [7]; 42.5% under setting [8]; 29.5% under setting [9]; 29.4% under setting [10]; 21.6% under setting [11]; 39.1% under setting [12].

Regarding `COc1cccc(COC(C)C(=O)NCCS)c1` (stereo unspecified), the percent labeling runs as follows: under setting [1], 39.3%; under setting [2], 16.2%; under setting [3], 33.7%; under setting [4], 22%; under setting [5], 33.9%; under setting [6], 32.6%. Further, the percent labeling under setting [7] is 28.1%; the percent labeling under setting [8] is 38.1%; the percent labeling under setting [9] amounted to 22.3%; the percent labeling under setting [10] worked out at 31.1%; the percent labeling under setting [11] stood at 32.4%; the percent labeling under setting [12] is 55%.

Consider `CCOc1ccc(NC(=O)CCS)cc1CN(CC)CC`, for which the percent labeling was 12% under setting [2]; 39.5% under setting [3]; 51.2% under setting [4]; 40.1% under setting [5]; 47.5% under setting [6]; 37.7% under setting [7]. Further, the percent labeling under setting [9] is 31.8%, the percent labeling under setting [10] was found to be 31.4%, the percent labeling under setting [11] came to 27.4% and the percent labeling under setting [12] came to 60%.

`COc1ccc(C(=O)NCCS)nc1`: the percent labeling under setting [1] stood at 52%; the percent labeling under setting [2] was 44.3%; the percent labeling under setting [3] was 47%; the percent labeling under setting [4] was 34%; the percent labeling under setting [5] stood at 51.1%; the percent labeling under setting [6] was found to be 39.7%. Further, the percent labeling is, setting by setting: under setting [7], 69%; under setting [8], 50.7%; under setting [9], 41.7%; under setting [10], 47.1%; under setting [11], 41.6%; under setting [12], 51.6%.

With `COc1cnc(C(F)(F)F)cc1C(=O)NCCS`, the percent labeling under setting [1] came out at 43.5%; the percent labeling under setting [2] was 24.4%; the percent labeling under setting [3] turned out to be 46.1%; the percent labeling under setting [4] is 25.9%; the percent labeling under setting [5] worked out at 27.6%; the percent labeling under setting [6] was found to be 27.1%. In addition, the percent labeling came out at 43.4% under setting [7]; 40.4% under setting [8]; 23.5% under setting [9]; 23.1% under setting [10]; 27.1% under setting [11]; 43.5% under setting [12].

Consider `Cc1nn(CC(C)C)c(C)c1CCC(=O)NCCS`, for which the percent labeling was determined as 36.7% under setting [1]; 14.6% under setting [2]; 33.8% under setting [3]; 23.1% under setting [4]; 27.6% under setting [5]; 31.5% under setting [6]. Moreover, the percent labeling by setting is: under setting [7], 15.4%; under setting [8], 35.9%; under setting [9], 24.1%; under setting [10], 32%; under setting [11], 32.5%; under setting [12], 40.1%.

For the molecule `O=C(CCS)Nc1ccc(OCC2CC2)cc1F`, the percent labeling amounted to 14.4% under setting [2]; 21% under setting [3]; 26.4% under setting [4]; 23.7% under setting [5]; 20.4% under setting [6]; 35% under setting [7]. Moreover, the percent labeling under setting [9] turned out to be 14.2%, the percent labeling under setting [10] is 19.9%, the percent labeling under setting [11] turned out to be 20.1% and the percent labeling under setting [12] is 37.8%.

`O=C(NCCS)C1CCN(C(=O)OCc2ccccc2)CC1` had a percent labeling under setting [1] of 33.7%; a percent labeling under setting [2] of 12.5%; a percent labeling under setting [3] of 29%; a percent labeling under setting [4] of 24.1%; a percent labeling under setting [5] of 18.9%; a percent labeling under setting [6] of 48.2%. Also, the percent labeling reads like this: under setting [7], 24.4%; under setting [8], 38.2%; under setting [9], 19%; under setting [10], 20.3%; under setting [11], 19.4%; under setting [12], 34.1%.
